Test results as given in patent publication US4551445A, “Derivatives of arginine vasopressin antagonists” (The Medical College of Ohio, priority 1983, dated 1985).
Part of at least one peptide drawing is inferred or uncertain, most often the ends. Starred links: 1 amine or outer side, 2 acyl side, 3 side chain; linkers in the order of their positions; H or OH if unused. Positions of bridges follow the written chain, without caps; N, C: chain ends. Non-standard residues stand in square brackets, D forms with d. Residues, ends and D or L forms follow the SMILES beside them. X1 = O=C(CC1(S[*:2])CCCCC1)[*:1]

Columns and labels:
[1] = system: antidiuretic response; test: Antidiuretic agonist activity, intravenous injection in ethanol-anesthesized water-loaded rats; format: in vivo; details: table
[2] = system: vasopressor response to arginine vasopressin; test: Antivasopressor: antagonism to the vasopressor response (Dyckes et al.); format: in vivo; details: for Antagonistic Activities Antivasopressor ED: table
Experimental: Antagonism to the vasopressor response was estimated in accordance with Dyckes et al., J. Med. Chem., vol. 17 (1974) at 969. The values are expressed as pA2 values, defined as in Schild et al., Br. J. Pharmacol., vol. 2 (1947) at 189.
(§1) Antagonistic potencies were determined and expressed as "effective doses" and pA2 values. The "effective dose" is defined as the dose (in nanomoles per kilogram) that reduces the response seen from 2x units of agonist injected 20 min after the dose of antagonist to the response with 1x units of agonist. Estimated in vivo "pA2 " values represent the negative logarithms of the effective doses, divided by the estimated volume of distribution (67 ml/kg).

[3] = system: antidiuretic response to arginine vasopressin (ADH); test: Anti-antidiuretic: antagonism of the antidiuretic response to subsequent injections of vasopressin; format: in vivo, rats; details: Table 2; effective dose
Experimental: Activity as antidiuretic agonists was determined by intravenous injection of the compounds being evaluated in ethanol-anesthesized water-loaded rats in accordance with Sawyer, Endocrinology, vol. 63 (1958) at 694. Antagonism of the response to subsequent injections of vasopressin was tested as described by Sawyer et al., Science, vol. 212 (1981) at 49.
as §1

Row | SMILES | Agonistic Activities units/mg Antidiuretic [1] [units/mg] | Antagonistic Activities Antivasopressor ED ([2]; effective dose) [nmol/kg] | Antivasopressor ED ([2]; Table 1, effective dose) [nmol/kg] | Antivasopressor Potency ED ([2]; Table 2, effective dose) [nmol/kg] | AD/VP ([2]; Table 2, ratio, values fit antivasopressor ED / anti-antidiuretic ED) | Anti-Antidiuretic ED [3] [nmol/kg]
1 | CCOc1ccc(C[C@@H]2NC(=O)CC3(CCCCC3)SSC[C@@H](C(=O)N3CCC[C@H]3C(=O)N[C@@H](CCCNC(=N)N)C(=O)NCC(N)=O)NC(=O)[C@H](CC(N)=O)NC(=O)[C@H](CCC(N)=O)NC(=O)[C@H](Cc3ccccc3)NC2=O)cc1 [d(CH2)5 Tyr(Et)AVP, reference compound] (Y(Et)FQNCPRG-NH2; linker N-5 via X1) | 0.079 ± 0.004 | 0.31 | – | – | – | –
2 | COc1ccc(C[C@@H]2NC(=O)CC3(CCCCC3)SSC[C@@H](C(=O)N3CCC[C@H]3C(=O)N[C@@H](CCCNC(=N)N)C(=O)NCC(N)=O)NC(=O)[C@H](CC(N)=O)NC(=O)[C@H](CCC(N)=O)NC(=O)[C@H](Cc3ccccc3)NC2=O)cc1 [d(CH2)5 Tyr(Me)AVP, [1-(β-mercapto-β,β-cyclopentamethylenepropionic acid), 2-O-methyltyrosine]-arginine vasopressin, reference compound] (Y(Me)FQNCPRG-NH2; linker N-5 via X1) | 0.31 ± 0.07 | 0.16 | 0.16 ± 0.01 | – | – | –
3 | CC[C@@H](C)[C@H]1NC(=O)CC2(CCCCC2)SSC[C@@H](C(=O)N2CCC[C@H]2C(=O)N[C@@H](CCCNC(=N)N)C(=O)NCC(N)=O)NC(=O)[C@H](CC(N)=O)NC(=O)[C@H](CCC(N)=O)NC(=O)[C@H](Cc2ccccc2)NC1=O [d(CH2)5 D-Ile^2 AVP, [1-(β-mercapto-β,β-cyclopentamethylenepropionic acid), 2-D-isoleucine]-arginine vasopressin] ([dI]FQNCPRG-NH2; linker N-5 via X1) | – | – | – | 1.25 ± 0.3 | 0.04 | 8.3 ± 2.7
